Measured values as given in PubChem BioAssay AID1477 (National Center for Advancing Translational Sciences (NCATS), 2009).
The whole screen tested about 230,000 compounds, of which fewer than 10 were called active. Inconclusive means that the source gave no clear call. Such entries were picked first, then a sample of the others. Calls follow the shape of the dose curve; as a rule, active = well fitted curve in the direction sought with a large enough effect; inconclusive = small, poorly fitted or top-dose-only effect, or effect the other way, or another doubt; inactive = no such curve, though single readings can be large or run the other way. Potencies of inconclusive entries are left out as doubtful fits.

Biological target: Runt-related transcription factor 1 (Homo sapiens) + Core-binding factor subunit beta (Homo sapiens) (UniProt Q01196+Q13951)
Chain of UniProt Q01196 (Q01196 whole entry, looked up): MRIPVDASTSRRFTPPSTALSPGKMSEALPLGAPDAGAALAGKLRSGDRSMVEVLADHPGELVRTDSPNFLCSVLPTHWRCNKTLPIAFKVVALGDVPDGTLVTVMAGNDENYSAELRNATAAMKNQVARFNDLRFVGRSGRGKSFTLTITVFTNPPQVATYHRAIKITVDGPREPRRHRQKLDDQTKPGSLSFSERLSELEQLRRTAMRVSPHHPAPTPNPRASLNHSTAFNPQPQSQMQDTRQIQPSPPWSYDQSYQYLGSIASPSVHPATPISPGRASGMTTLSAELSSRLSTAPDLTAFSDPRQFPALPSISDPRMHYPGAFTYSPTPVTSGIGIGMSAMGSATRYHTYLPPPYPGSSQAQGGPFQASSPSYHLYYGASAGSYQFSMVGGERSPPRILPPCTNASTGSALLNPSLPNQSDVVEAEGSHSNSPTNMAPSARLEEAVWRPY
Chain of UniProt Q01196 (Q13951 whole entry, looked up): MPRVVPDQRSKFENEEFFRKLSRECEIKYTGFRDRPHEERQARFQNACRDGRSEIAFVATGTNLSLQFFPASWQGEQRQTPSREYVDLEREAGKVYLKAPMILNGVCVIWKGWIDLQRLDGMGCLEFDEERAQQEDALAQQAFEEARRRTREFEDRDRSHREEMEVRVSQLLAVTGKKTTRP
Assay: qHTS Assay for Compounds Blocking the Interaction Between CBF-beta and RUNX1 for the Treatment of Acute Myeloid Leukemia; as to activity, negative = inhibition: % of control where 0% means no effect
Settings: AlphaScreen CBFb-His/RUNX1-biotin binding, biochemical; activity, negative = inhibition: at 59.8 µM (top of the series) unless noted
How it was run: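 Room-temperature protein-protein interaction test with 30 nM each of His-tagged CBF-beta and biotinylated RUNX1, 15 min with compound, then 90 min with nickel plus streptavidin beads. Signal read in AlphaScreen mode.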

Compound	activity, negative = inhibition	Potency
COc1cc(/C=N/N=C(N)N)ccc1OCc1ccc(Cl)cc1	inactive: -5.66%	
Oc1ccc2ccccc2c1/C=N/c1nccs1	inactive: 0.109%	
C=CCN(CC=C)S(=O)(=O)c1ccc(NC(=S)NC(=O)Cc2ccc(OC)cc2)cc1	inactive: 0.106%	
CN(C)c1ccc(/C=C/C(=O)c2ccc3c(c2)OCCO3)cc1[N+](=O)[O-]		inconclusive [inhibitor, single point]
COc1ccc(C2CC(c3cccs3)=NN2C(=O)COC(=O)c2cncc(Br)c2)cc1OC (stereo not given)		inconclusive [inhibitor, single point]
O=C(N[C@@H](c1ccccc1)[C@H](O)c1ccccc1)[C@@H]1CCCN1C(=O)OCc1ccccc1		inconclusive [inhibitor, single point]
O=C(Nc1ccc2c(c1)OCCO2)c1ccc(Cl)c([N+](=O)[O-])c1	inactive: -13.7%	
CCC/C=C(\CCC)C(NS(C)(=O)=O)c1ccccc1 (stereo not given)	inactive: 11.8%	
CCNC(=S)N=Nc1c(O)n(Cc2ccc(Cl)cc2)c2ccccc12		inconclusive [inhibitor, single point]
Cc1cccc(C2=NN(c3ccc(Br)cc3)[C@@H](C(=O)N3CCOC3=O)[C@@H]2C)c1		inconclusive [activator, partial curve]
CCC1(C)NC(=O)N(CC(=O)Nc2sc3c(c2C(=O)OC)CCCCC3)C1=O (stereo not given)	inactive: -0.0395%	
COCCn1c(C)cc(C(=O)COC(=O)c2cc3c(s2)CCC3)c1C		inconclusive [inhibitor, partial curve]
CCc1ccc(C2=CC(c3cc(Br)ccc3F)n3ncnc3N2)cc1 (stereo not given)		inconclusive [inhibitor, single point]
COc1cc(NC(=O)SC2=NCCS2)cc(OC)c1		inconclusive [inhibitor, full curve, poor fit]
COc1cc(O)c(C(CCN2CCN(c3ccccc3)CC2)c2ccc3c(c2)OCO3)c(OC)c1 (stereo not given)		inconclusive [inhibitor, single point]
COc1cccc(C2CC(c3ccccc3)Nc3ncnn32)c1 (stereo not given)		inconclusive [inhibitor, partial curve]
COc1cccc(C(=O)N(Cc2ccco2)Cc2cc3cccc(C)c3[nH]c2=O)c1	inactive: -0.396%	
CCOC(=O)c1sc(-c2ccc(Cl)cc2Cl)nc1O		inconclusive [activator, partial curve]
O=C(O)C1CC=CCC1C(=O)N1CCc2ccccc21 (stereo not given)		inconclusive [inhibitor, single point]
COC1(OC)C(/C=C/c2ccc(Cl)cc2)C(C#N)(C#N)C1(OC)OC (stereo not given)		inconclusive [inhibitor, single point]
